The record followed here is the supplement of paper PMC9446081.

In all, about 39,000 compounds went through this assay and about 220 (0.56%) showed activity. The list shows a part of the results.
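Further: static incubation at 37 °C against the wild-type strain, values averaged over two biological replicates.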

In this assay the test system is Escherichia coli K-12 BW25113. The experiment in a line: relative growth (OD600 normalised to plate interquartile mean) (fraction); higher = less growth inhibition, active = 0.2 or less. The settings on record: 50 µM; LB; incubation time: overnight (16-24 h).
Consider `COc1ccc(NC(=O)Nc2ccc3c(c2)C(=O)N([C@H](C)CO)C[C@H](C)[C@@H](CN(C)S(C)(=O)=O)O3)cc1`, for which the relative growth is inactive: 1.01. The result for `CCCNC(=O)C[C@H]1CC[C@H]2[C@H](COc3ccc(NC(=O)c4ccc5c(c4)OCO5)cc3C(=O)N2C)O1` reads inactive: 0.976; that for `C[C@@H]1CN([C@@H](C)CO)C(=O)c2cccc(NS(=O)(=O)c3ccc(Cl)cc3)c2O[C@H]1CN(C)Cc1ccc(-c2ccccc2)cc1`, inactive: 1.02. `C[C@H](CO)N1C[C@H](C)[C@@H](CN(C)C(=O)CCC(F)(F)F)OCCCC[C@H](C)Oc2ccc(NS(=O)(=O)c3cccs3)cc2C1=O`: the relative growth is inactive: 0.987. `COC(=O)c1cn(C)cn1`: the relative growth was inactive: 0.994. `C[C@H](CO)N1C[C@H](C)[C@H](CN(C)Cc2ccccc2)OCc2ccccc2-c2c(n(C)c3ccccc23)C1=O`: the relative growth is inactive: 0.985. The result for `C[C@H]1CN([C@@H](C)CO)C(=O)c2cc(NC(=O)CCN3CCOCC3)ccc2O[C@H]1CN(C)C(=O)Nc1ccc(F)cc1` reads inactive: 1; that for `C[C@@H]1CCCCO[C@H](CN(C)S(=O)(=O)c2ccc(F)cc2)[C@@H](C)CN([C@H](C)CO)C(=O)c2cc(NC(=O)CCCCCC(=O)Nc3ccccc3N)ccc2O1`, inactive: 0.998.

For the compound `COc1ccccc1CNC(=O)C[C@H]1C[C@@H]2c3cc(NC(=O)Nc4ccc(C(F)(F)F)cc4)ccc3O[C@@H]2[C@H](CO)O1`, the relative growth was inactive: 1.03. The result for `NC[C@H]1Cc2ccccc2O1` reads inactive: 0.981; that for `CC(C)NC(=O)N(C)C[C@H]1OCCCC[C@@H](C)Oc2ccc(NS(=O)(=O)c3cn(C)cn3)cc2C(=O)N([C@@H](C)CO)C[C@H]1C`, inactive: 0.991. For `O=C(C[C@@H]1CC[C@H]2[C@@H](COC[C@@H](O)CN2C(=O)Nc2ccc(C(F)(F)F)cc2)O1)NCCc1ccncc1`, the relative growth is inactive: 0.738. The result for `CN1C(=O)CC(c2ccccc2)C1=O` (centres undefined) reads inactive: 1.05. With `COc1ccc(NC(=O)N(C)C[C@H]2OCCCC[C@H](C)Oc3ccc(NC(=O)Cc4ccccc4)cc3C(=O)N([C@H](C)CO)C[C@@H]2C)cc1` the figure was inactive: 1.02; with `C[C@@H]1CCCCO[C@H](CN(C)S(=O)(=O)c2cn(C)cn2)[C@@H](C)CN([C@H](C)CO)C(=O)c2cc(NC(=O)Nc3cccc4ccccc34)ccc2O1`, inactive: 1.02. In the case of `Cc1noc(C)c1NC(=O)Nc1ccc2c(c1)C(=O)N([C@@H](C)CO)C[C@@H](C)[C@@H](CN(C)C(=O)Cc1ccccc1)OCCCC[C@@H](C)O2`, the relative growth is inactive: 0.903.

Consider `C[C@@H]1CN([C@H](C)CO)C(=O)c2cccc(NS(=O)(=O)c3ccccc3)c2O[C@@H]1CN(C)CC1CC1`, for which the relative growth was inactive: 1.02. The result for `N=C(N)SCc1csc(N)n1` reads inactive: 0.969; that for `O=[N+]([O-])c1ccc(Oc2ccc(-c3ccccc3)cc2)cc1`, inactive: 1.04; that for `C[C@@H](O)CC1=C[C@H]([C@@H](C)O)OC1=O`, inactive: 0.978.

Turning to `CC(C)NC(=O)N(C)C[C@@H]1OCc2cn(nn2)CCCC(=O)N([C@@H](C)CO)C[C@@H]1C`, the relative growth was inactive: 1. The result for `C[C@@H]1CN([C@H](C)CO)C(=O)c2cc(C#CC3(O)CCCC3)cnc2O[C@@H]1CN(C)C(=O)CN(C)C` reads inactive: 0.981; that for `C[C@@H]1CCCCO[C@H](CN(C)C(=O)Nc2ccc(C(F)(F)F)cc2)[C@@H](C)CN([C@@H](C)CO)C(=O)c2cc(NC(=O)Nc3ccccc3)ccc2O1`, inactive: 1; that for `COc1ccc(NC(=O)Nc2ccc3c(c2)C(=O)N([C@H](C)CO)C[C@@H](C)[C@H](CN(C)Cc2ccc(C(=O)O)cc2)OCCCC[C@H](C)O3)cc1`, inactive: 0.999. For the compound `CC(C)NC(=O)NCC[C@@H]1CC[C@H](NC(=O)CN(C)C)[C@H](CO)O1`, the relative growth is inactive: 0.996.

Regarding `O=C(O)c1ccc2c(ccc3nn(-c4ccc(/C=C/c5ccc(-n6nc7ccc8cc(C(=O)O)ccc8c7n6)cc5S(=O)(=O)O)c(S(=O)(=O)O)c4)nc32)c1`, the relative growth was inactive: 1.01. The result for `C[C@@H]1CN([C@H](C)CO)C(=O)Cc2cc(NC(=O)Cc3ccccc3)ccc2O[C@@H]1CN(C)S(=O)(=O)c1ccccc1` reads inactive: 1.02; that for `CO[C@@H]1CN(C)C(=O)c2cc(NS(=O)(=O)c3ccccc3)ccc2OC[C@H](C)N(C(=O)NC(C)C)C[C@@H]1C`, inactive: 0.998. With `CC(C)(C)[S@](=O)N1Cc2cc(C(=O)N3CCc4ccccc4C3)nc(-c3cccc(-c4cncnc4)c3)c2[C@@H]1CCO` the figure was inactive: 0.984; with `Cc1noc(C)c1S(=O)(=O)Nc1ccc2c(c1)C(=O)N([C@H](C)CO)C[C@@H](C)[C@@H](CN(C)C(=O)Nc1ccc(F)cc1)OCCCC[C@@H](C)O2`, inactive: 1.04. With `CC(C)NC(=O)N(C)C[C@@H]1Oc2cc(C#Cc3cccc(F)c3)ccc2S(=O)(=O)N([C@H](C)CO)C[C@H]1C` the figure was inactive: 0.984; with `COc1cc2c(cc1OC)[C@]1(Nc3c-2c(-c2ccccc2)nn3-c2ccccc2)C(=O)Nc2ccccc21`, inactive: 0.988; with `C[C@H]1CN([C@@H](C)CO)S(=O)(=O)c2ccc(C#CC(C)(C)O)cc2O[C@H]1CN(C)C(=O)CN(C)C`, inactive: 0.995. In the case of `C[C@@H]1CN([C@@H](C)CO)C(=O)c2cccc(NC(=O)CCCCCC(=O)Nc3ccccc3N)c2O[C@@H]1CN(C)Cc1ccc(-c2ccccc2)cc1`, the relative growth is inactive: 0.92. As for `COc1cccc(NC(=O)N(C)C[C@H]2Oc3cc(C#Cc4ccncc4)ccc3S(=O)(=O)N([C@@H](C)CO)C[C@H]2C)c1`, the relative growth was inactive: 0.997. With `COc1ccc(CN(C)C[C@@H]2OCCCC[C@H](C)Oc3ccc(NS(=O)(=O)c4ccc(OC)cc4)cc3C(=O)N([C@H](C)CO)C[C@@H]2C)cc1`, the relative growth is inactive: 0.996.

As for `COC(=O)C[C@@H]1CC[C@H]2[C@@H](COC[C@@H](O)CN2S(=O)(=O)c2ccc(F)cc2)O1`, the relative growth is inactive: 0.976. The result for `C[C@@H]1CCCCO[C@H](CN(C)CC2CC2)[C@@H](C)CN([C@H](C)CO)C(=O)c2cc(NC(=O)Nc3cccc4ccccc34)ccc2O1` reads inactive: 0.978; that for `CCOC(=O)N(C)C[C@H]1OCc2cnnn2CCCC(=O)N([C@H](C)CO)C[C@@H]1C`, inactive: 1.01. The result for `C[C@H]1CCCCO[C@H](CN(C)S(=O)(=O)c2ccccc2)[C@@H](C)CN([C@@H](C)CO)C(=O)c2cc(NC(=O)CCC(F)(F)F)ccc2O1` reads inactive: 0.982; that for `C[C@@H]1CCCCO[C@H](CN(C)S(=O)(=O)c2ccccc2)[C@@H](C)CN([C@@H](C)CO)C(=O)c2cc(NC(=O)Nc3ccc4c(c3)OCO4)ccc2O1`, inactive: 1.02; that for `C[C@@H]1CCCCO[C@@H](CN(C)Cc2ccc(C(=O)O)cc2)[C@@H](C)CN([C@@H](C)CO)C(=O)c2cc(NS(=O)(=O)c3ccccc3)ccc2O1`, inactive: 1.03. With `CS(=O)(=O)Nc1ccc2c(c1)[C@H]1C[C@@H](CC(=O)NCC3CC3)O[C@@H](CO)[C@H]1O2` the figure was inactive: 1.01; with `C[C@H](CO)N1C[C@H](C)[C@@H](CN(C)Cc2ccc3c(c2)OCO3)OCc2ccccc2-c2c(n(C)c3ccccc23)C1=O`, inactive: 0.997. Consider `CCNC(=O)C[C@@H]1C=C[C@H](NC(=O)C2CCOCC2)[C@H](CO)O1`, for which the relative growth was inactive: 0.986.

As for `C[C@H](CO)N1C[C@H](C)[C@@H](CN(C)S(=O)(=O)c2ccc(Cl)cc2)Oc2ccc(NC(=O)CCN3CCOCC3)cc2CC1=O`, the relative growth is inactive: 0.987. For the compound `C[C@H](CO)N1C[C@H](C)[C@@H](CN(C)C(=O)NC2CCCCC2)OCCCC[C@H](C)Oc2ccc(NS(=O)(=O)c3cccs3)cc2C1=O`, the relative growth is inactive: 1.02. With `C[C@H](CO)N1C[C@H](C)[C@H](CN(C)CC2CC2)Oc2c(NS(=O)(=O)c3cn(C)cn3)cccc2C1=O` the figure was inactive: 0.991; with `COc1cccc(S(=O)(=O)N(C)C[C@@H]2Oc3ncc(-c4cccc(C(=O)N(C)C)c4)cc3C(=O)N([C@@H](C)CO)C[C@H]2C)c1`, inactive: 1.04; with `COC(=O)[C@H](Cc1ccccc1)N1CC(/C=C/C2CC2)=C[C@@H]1[C@@H](O)CCn1cc(-c2ccc(C(=O)NO)cc2)nn1`, inactive: 1.02. Take `C[C@@H]1CN([C@@H](C)CO)C(=O)c2cc(NC(=O)Nc3cccc4ccccc34)ccc2O[C@@H](C)CCCCO[C@@H]1CN(C)S(=O)(=O)c1ccccc1`: the relative growth is inactive: 1.01.

Take `COc1ccc2cc1Oc1ccc(cc1)CC1c3cc(c(OC)cc3CCN1C)Oc1c(OC)c(OC)cc3c1C(C2)N(C)CC3` (centres undefined): the relative growth is inactive: 0.94. With `Cc1ccc(S(=O)(=O)N(C)C[C@@H]2Oc3c(NS(=O)(=O)c4c(C)noc4C)cccc3C(=O)N([C@@H](C)CO)C[C@@H]2C)cc1` the figure was inactive: 1.

As to `C[C@@H]1CCCCO[C@H](CN(C)C(=O)NC2CCCCC2)[C@@H](C)CN([C@H](C)CO)C(=O)c2cc(NC(=O)Nc3cccc4ccccc34)ccc2O1`, the relative growth was inactive: 1.02. With `C[C@@H]1CN([C@@H](C)CO)C(=O)Cc2cc(NC(=O)C3CCCCC3)ccc2O[C@@H]1CN(C)S(C)(=O)=O` the figure was inactive: 0.989; with `Cc1noc(C)c1S(=O)(=O)Nc1ccc2c(c1)C(=O)N([C@H](C)CO)C[C@@H](C)[C@@H](CN(C)C(=O)Nc1ccccc1)OCCCC[C@@H](C)O2`, inactive: 1.03. The result for `CC(C)NC(=O)Nc1ccc2c(c1)CC(=O)N([C@@H](C)CO)C[C@H](C)[C@@H](CN(C)S(=O)(=O)c1ccc(F)cc1)O2` reads inactive: 1.02; that for `COc1ccc(Oc2cc(NCCC(F)(F)F)c3ncc(-c4ccc(C(=O)NC5CC5)c(C)c4)n3n2)c(F)c1F`, inactive: 0.999; that for `C[C@@H]1CCCCO[C@@H](CN(C)C(=O)Cc2ccccc2)[C@@H](C)CN([C@@H](C)CO)C(=O)c2cc(NC(=O)Cc3ccccc3)ccc2O1`, inactive: 1.02.
